Experimental data published in patent US20250041437A1, “HUMANIZED MUC1 ANTIBODY AND ANTIBODY DRUG CONJUGATE” (Sun Pharma Advanced Research Company Limited, priority 2023, published 2025).

Target: T1, recombinant human MUC1-SEA (MUC1 antigen, Acrobiosystems, Cat: MU1-H52H9) (human), P15941
T1 chain: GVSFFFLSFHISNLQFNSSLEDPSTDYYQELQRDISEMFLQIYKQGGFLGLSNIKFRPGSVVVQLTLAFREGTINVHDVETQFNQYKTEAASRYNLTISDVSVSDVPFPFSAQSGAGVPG
Experiment: SPR, single cycle kinetics; MUC1 antigen captured on anti-His CM5 chip

B1: HM5LM4-ADC (humanized IgG anti-MUC1-SEA mAb conjugated to MC-Val-Cit-PABC-MMAE) (antibody)
heavy: EIQLVQSGAEVKKPGSSVKVSCKVTGHSITRGSSWHWMRQAPGQGLEWIGYIHYGGGTSYNPSLKSRITITRDTSTNTFYMELSSLRSEDTAFYFCARYSYDITYRWFFDVWGQGTLVTVSSASTKGPSVFPLAPSSKSTSGGTAALGCLVKDYFPEPVTVSWNSGALTSGVHTFPAVLQSSGLYSLSSVVTVPSSSLGTQTYICNVNHKPSNTKVDKRV[gap - human IgG1 Fc]
light: DIQMTQSPSTLSASVGDRVTITCRASQNIGTSIHWYQQKPGKAPKLLIKYASESISGVPSRFSGSGSGTEFTLTISSLQPDDFATYYCQQNNNWPLTFGQGTKVEIKRTVAAPSVFIFPPSDEQLKSGTASVVCLLNNFYPREAKVQWKVDNALQSGNSQESVTEQDSKDSTYSLSSTLTLSKADYEKHKVYACEVTHQGLSSPVTKSFNRGEC
modifications: not checked
  Kd: 40.6 pM
